# From article PMC12040169 (PLOS Biology, 2025)
# Some of the results follow.
# Test system: T1, C. trachomatis L2/434/Bu expressing GFP (CTL2-GFP)
# T1 construct: L2/434/Bu GFP intracellular growth in HeLa cells
# Parameters: species or system HeLa; C. trachomatis total inclusion area by high-content imaging, normalised to DMSO
# Conditions: total inclusion area; 28.5 h, 10 µM; inhibitor
# In short: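 Bulk GFP and resorufin signals were read first. Wells were then fixed, stained with Hoechst and imaged to detect GFP inclusions and host nuclei. MICs followed the previously described calculation.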
row,SMILES,% of control remaining
1,CN(C)c1ccc(/C=C2/C(=N)N3N=C(c4ccccc4Cl)SC3=NC2=O)cc1 [CBK097554],90.0788
2,CCn1nc(C(C)C)cc1C(=O)NCCN1CCC(C)CC1 [CBK282107],82.915
3,O=C1N[C@@H]2CCN(C(=O)Cc3ccc(O)cc3)C[C@@H]2C/C=C/CCOc2ccccc21 [CBK292043],85.3444
4,CS(=O)(=O)N(CC(=O)Nc1ccccc1C(F)(F)F)Cc1ccc(Cl)cc1 [CBK267854],122.138
5,CCCC12CN3CC(C)(CN(C1)C31C(=O)Nc3ccc(C)cc31)C2=O (stereo not shown) [CBK268491],109.229
6,O=C(Nc1cc2ccccc2c(Br)n1)N[C@@H]1C[C@H]1c1ccccc1 [CBK063276],95.9595
7,Cc1ncc(CN2CCCC(Cc3nc4ccccc4[nH]3)C2)s1 (stereo not shown) [CBK281902],112.264
8,Cc1ccccc1C1(O)CCN(CC(O)c2ccccc2)CC1 (stereo not shown) [CBK282491],74.3605
9,O=C(O)COc1ccc2c(=O)c(Oc3ccc(Cl)cc3)c(C(F)(F)F)oc2c1 [CBK296087],133.676
10,O=c1cc(CN2CCC[C@@H]2CN2CCCC2)[nH]c(=O)[nH]1 [CBK149108],74.9798
11,CC(=O)N1CCCc2cc(C(O)CN3CCN(c4cccc(C)c4)CC3)ccc21 (stereo not shown) [CBK286457],89.1353
12,CCc1nc2ccc(C(=O)NCCNC(C)=O)cn2c1N(C)Cc1ccc(NC(C)=O)cc1 [CBK145612],93.3256
13,O=C(NCC(c1ccccc1)c1ccccc1)N1CCN(c2ccccc2)CC1 [CBK155197],73.6974
14,Cc1cc(C)n(C(C)C(=O)N(C)CCn2ccnc2C)n1 (stereo not shown) [CBK281759],110.625
15,CCN(CC)C(=O)c1ccsc1NS(=O)(=O)c1cc(Br)ccc1OC [CBK042327],106.22
16,CN(c1ncccc1C#N)C1CCN(CCC(N)=O)CC1 [CBK016793],49.0043
17,COc1ccc(-c2n[nH]cc2/C=N/NC(=O)c2cc(Br)ccc2O)c(OC)c1 [CBK262067],103.043
18,CC(=O)N/C(=C/c1ccc([N+](=O)[O-])cc1)C(=O)Nc1cccc(C(=O)O)c1 [CBK264495],99.019
19,Nn1cnn2c(SCC(=O)c3cccs3)nnc12 [CBK263184],102.587
20,COc1c(C)cc(Br)cc1C(=O)Nc1ccccc1-c1nc2ccccc2s1 [CBK267155],109.456
21,Cc1cc(C)c2c(NCc3ccc(C)o3)n[nH]c2n1 [CBK284621],72.6123
22,COc1cncc(-c2ccc(N3CCN(c4ccccc4C#N)CC3)nc2)c1 [CBK037738],99.9909
23,Cc1cc(OCCCC(=O)Nc2cccc([N+](=O)[O-])c2)cc(C)c1Cl [CBK267978],108.671
24,SC1=NC2(CCCC2)NN1c1ccc(Cl)cc1 [CBK288391],96.8124
25,O=c1nc(NS(=O)(=O)c2ccc(Oc3ccccc3)cc2)c(F)c[nH]1 [CBK067571],86.0359
26,NS(=O)(=O)c1ccc(NC2=NC(=O)C(CC(=O)Nc3ccc(Br)cc3)S2)cc1 (stereo not shown) [CBK266616],102.111
27,CC(C)OC(=O)C(NC(=O)OC(C)(C)C)c1ccccc1 (stereo not shown) [CBK170399],36.9091

row,SMILES,% of control remaining
1,CCC(=O)N1CCN(c2ccccc2NC(=O)c2ccc(C#N)cc2F)CC1 [CBK270110],73.8569
2,COc1ccc(-c2cn3ccnc3c(N3CCCCC3CO)n2)cc1OC (stereo not shown) [CBK066230],88.908
3,O=S(=O)(c1ccc(Cl)s1)N1CCN(c2ccccn2)CC1 [CBK270305],80.2879
4,CCS(=O)(=O)Nc1cc(C(F)(F)F)ccc1Cl [CBK111339],91.3414
5,O=C(O)C[C@@H]1CCN(C(=O)Nc2ccccc2)C[C@@H]1CCN1CCCCC1 [CBK288782],102.74
6,NS(=O)(=O)c1ccc(NC(=O)c2ccc(NC(=O)C3COc4ccccc4O3)cc2)cc1 (stereo not shown) [CBK266573],114.834
7,CCN1C(=O)CC2(C1=O)C(=O)N(Cc1cccc(CN3C(=O)CCC3=O)c1)c1ccccc12 (stereo not shown) [CBK075508],104.462
8,Cc1nc2ccc(C(=O)NC(C)(C)CN3CCCC(C)C3)cc2[nH]1 (stereo not shown) [CBK282629],139.826
9,CCOC(=O)Cn1ccc2ccnc(-c3cccs3)c21 [CBK285200],99.6836
10,COc1ccccc1-c1nccnc1NCc1cc(OC)c(OC)c(OC)c1 [CBK036642],130.784
11,COc1cc(C2CC(=O)N(c3cc(C)on3)C(=O)C2)cc(OC)c1OC [CBK006810],103.34
12,CC(=O)Nc1cc(C(=O)CSc2nnnn2-c2ccc(C)c(C)c2)ccc1O [CBK295143],107.599
13,CCOc1ccc2nc(SCC(=O)Nc3c(C)n(C)n(-c4ccccc4)c3=O)sc2c1 [CBK267229],97.686
14,O=C(Nc1cc(Cl)nc(Cl)c1)N(Cc1ccc(-c2ccccc2)cc1)CC1CCNCC1 [CBK049794],32.2737
15,O=C(CSc1nnc(-c2ccco2)[nH]1)c1ccc(O)cc1O [CBK264392],104.723
16,Cc1c(C(=O)N(C)CC(C)C)nnn1-c1ccc2ncccc2c1 [CBK305161],100.757
17,O=c1n(-c2ccc(OC(F)(F)F)cc2)ccn1S(=O)(=O)c1ccccc1 [CBK106655],91.4249
18,O=c1[nH]c2c(-c3ccccc3)nnn2c2ccccc12 [CBK288047],91.0456
19,CN(c1ncc(-c2cc3ccccc3o2)cc1C(=O)NCC(F)(F)F)S(C)(=O)=O [CBK106479],116.019
20,CCOC(=O)N1CCC(NC(=O)N2CCCCC2CO)CC1 (stereo not shown) [CBK155991],85.7709
21,CC(C)(C)OC(=O)N1CCC(NCc2ccccn2)CC1 [CBK304603],41.2243
22,Cc1onc(-c2ccccc2)c1C(=O)NCc1ccccc1 [CBK200116],89.7812
23,CC(C)Oc1cncc(Cl)n1 [CBK113321],70.8746
24,Cc1cccc(-c2noc(C)c2C(=O)NCCn2ccnc2C)c1 [CBK282633],91.8149
25,COc1ccc(C(=O)NC(NC(=S)Nc2cccc3cccnc23)C(Cl)(Cl)Cl)cc1 (stereo not shown) [CBK261028],70.2291
26,O=C(CN(c1ccccc1)S(=O)(=O)c1ccccc1[N+](=O)[O-])Nc1ccccc1 [CBK263777],95.142
27,O=C(O)CCSc1cccc(C(F)(F)F)c1 [CBK012986],81.9252

row,SMILES,% of control remaining
1,Cc1ccc(CN(CCN(C)C)Cc2c(C)nn(C(C)C)c2C)o1 [CBK283235],122.145
2,CCOc1ccc(NC(=O)c2ccc(S(=O)(=O)N(C)C)cc2)c([N+](=O)[O-])c1 [CBK263396],109.207
3,CC1(C)CC(=O)C2=C(C1)Nc1ncnn1C2c1ccccc1F (stereo not shown) [CBK266446],79.7052
4,C[N+]1(c2ccccc2)CCC(N)=N1 (stereo not shown) [CBK262213I],95.9062
5,CCn1nccc1C(=O)N1CCC(c2cc3c(C)cccc3cn2)CC1 [CBK282234],89.5473
6,COC(=O)c1c(NC(=O)CC2Nc3cccc4cccc(c34)NC2=O)sc(C)c1C (stereo not shown) [CBK267562],111.37
7,OC(CN1CCC(Oc2cccc(F)c2)CC1)c1cccs1 (stereo not shown) [CBK281453],99.8458
8,CCCC(C)c1cn(CCc2cc(O)nc(C)n2)nn1 (stereo not shown) [CBK306871],81.4463
9,CN(Cc1cnn(C)c1)C(=O)c1cc(O)nc2ccccc12 [CBK251706],85.5895
10,Cc1ccc(S(=O)(=O)N(CC(=O)Nc2cccnc2)c2cc(C)ccc2C)cc1 [CBK264115],105.701
11,O=C(/C=C/c1ccc2c(c1)OCO2)N1CCCC2(CCN(C(=O)c3ccoc3)C2)C1 (stereo not shown) [CBK131622],94.0423
12,Cc1nc2ccc(C(=O)NC3=NN(c4ccccc4)C(=O)C3)cn2c1N(C)C(=O)CCc1ccccc1 [CBK146817],86.7858
13,O=C(COc1ccc(S(=O)(=O)N2CCOCC2)cc1)NCc1ccccc1 [CBK268533],112.782
14,CCC(C)(C)c1ccc(S(=O)(=O)Nc2ccc(F)cc2F)cc1 [CBK200039],114.808
15,O=C1CCCC2=C1C(c1ccccc1O)c1c([nH][nH]c1=O)N2 (stereo not shown) [CBK288442],111.924
16,Cc1ccc(C)c(NC(=O)c2sc3cc(C)ccc3c2Cl)c1 [CBK263648],116.664
17,O=c1/c(=C/c2cccnc2)sc2n1CN(c1cccc([N+](=O)[O-])c1)CN=2 [CBK264401],114.415
18,NS(=O)(=O)c1ccc(NC(=O)CN2CCN(c3ccc([N+](=O)[O-])cc3)CC2)cc1 [CBK266232],101.999
19,CSCCCNC(=O)c1cnn2c(C)c(Cc3cccnc3)c(C)nc12 [CBK162164],26.1654
20,CCN(Cc1ccncc1)C(=O)NCc1ccc2c(c1)OCO2 [CBK145056],66.2899
21,CCCN(Cc1nccn1C)C(=O)Cn1nc(C)c2ccccc2c1=O [CBK307441],37.9144
22,Cc1nc(C2CCCN(C(=O)c3cccnc3)C2)c2sccn12 (stereo not shown) [CBK285233],81.275
23,CCN1CCN(Cc2c(C(C)(C)C)[nH]c3ncccc23)CC1 [CBK285341],104.043
24,CC(NC(=O)CCn1c(C(F)F)cc2cccnc21)c1ccncc1 (stereo not shown) [CBK285069],78.9733
25,Cc1ccc(C(=O)NCCN2CCC(O)(c3ccc(F)cc3)CC2)o1 [CBK283167],78.8263
